Data from the supplement of paper PMC4166925.
± gives the standard deviation of the averaged measurements. Whole data set: some 33,000 sequences, median “E-score (dimensionless, -0.5 to 0.5)” near -0.049, cut for the highest 2% near 0.37. The list shows a part of the results.

Tested on: T1, PmTbr T-box DNA-binding domain (GST fusion)
T1 sequence: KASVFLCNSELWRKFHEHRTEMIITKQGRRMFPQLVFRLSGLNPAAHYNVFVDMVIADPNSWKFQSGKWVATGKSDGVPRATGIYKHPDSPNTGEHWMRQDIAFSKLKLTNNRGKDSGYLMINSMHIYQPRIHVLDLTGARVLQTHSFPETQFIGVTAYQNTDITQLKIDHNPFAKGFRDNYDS
Test: PBM E-score of 8-mer (E-score (dimensionless, -0.5 to 0.5)); Tbr is Tbrain of the sea star Patiria miniata (Pm) or the sea urchin Strongylocentrotus purpuratus (Sp); higher = stronger binding preference; most listed sequences are background and not binding sites
Settings: the construct has about 5 more residues each side
Outline: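 Using the Universal PBM Analysis Suite, every ungapped 8-mer received an enrichment E-score averaged over duplicate arrays. Probe intensities came from double-stranded Universal Agilent oligonucleotide arrays incubated with 200 nM GST-fused Tbr T-box DNA-binding domain in PBS (pH 7.5). That protein was expressed in BL21 E. coli at 20 °C and purified by glutathione affinity chromatography.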

| Sequence | PBM E-score of 8-mer |
| --- | --- |
| ATGTGCAC | 0.015 ± 0.013 |
| AGAGTCCC | -0.292 ± 0.091 |
| AAGCAGCT | -0.151 ± 0.042 |
| ACGAACGG | -0.0879 ± 0.0054 |
| AATAGAGA | -0.0689 ± 0.078 |
| GCATAGAA | -0.0823 ± 0.034 |
| CAAGCGAG | 0.00257 ± 0.039 |
| CATCCCCA | -0.0561 ± 0.085 |
| CATTAATA | -0.193 ± 0.067 |
| GTGGAGTA | -0.131 ± 0.093 |
| ACGTCTCG | 0.108 ± 0.038 |
| AACCGTGG | -0.0611 ± 0.048 |
| ACCCAGTA | -0.234 ± 0.012 |
| CCGCGCGC | 0.0453 ± 0.026 |
| AGCACGAG | 0.115 ± 0.0097 |
| GGTATCAA | 0.079 ± 0.11 |
| AGGGATCC | -0.209 ± 0.027 |
| ATGTCGCG | 0.289 ± 0.0094 |
| CGAGAACG | 0.271 ± 0.0043 |
| GCTGACCA | -0.224 ± 0.072 |
| GCGAGACC | 0.232 ± 0.056 |
| ACTTGTTC | -0.188 ± 0.0091 |

| Sequence | PBM E-score of 8-mer |
| --- | --- |
| AATGAATT | -0.121 ± 0.13 |
| GAAGAACC | -0.202 ± 0.056 |
| CCTCCCGC | -0.0958 ± 0.03 |
| ACAGGACC | -0.282 ± 0.042 |
| GTTGGGGA | -0.127 ± 0.1 |
| AGTGGGTA | -0.124 ± 0.028 |
| AGCATCCC | -0.136 ± 0.039 |
| CACATGGG | 0.113 ± 0.049 |
| AGACCGAT | -0.274 ± 0.099 |
| CACGCAGA | 0.125 ± 0.016 |
| TATGGGAA | -0.202 ± 0.022 |
| AAAAACGA | -0.142 ± 0.05 |
| ACTACAAC | -0.0613 ± 0.028 |
| TCTCCGCA | -0.11 ± 0.1 |
| CAGGTACC | -0.027 ± 0.063 |
| GAAGCGTC | 0.0981 ± 0.0082 |
| GAACGGGC | 0.0503 ± 0.036 |
| CCTCCTCG | -0.0688 ± 0.014 |
| AGTCTGCG | -0.148 ± 0.0098 |
| CCCGACAC | 0.388 ± 0.012 |
| ATCCCATA | -0.0884 ± 0.072 |
| CAAGTTGG | 0.0672 ± 0.011 |

| Sequence | PBM E-score of 8-mer |
| --- | --- |
| CATGGTCC | -0.132 ± 0.037 |
| ATACTGCG | -0.0695 ± 0.016 |
| AGTCACAA | 0.106 ± 0.0063 |
| GCAAGCCC | -0.103 ± 0.075 |
| CATGCGGC | -0.0919 ± 0.033 |
| ATAGCAAA | -0.0508 ± 0.04 |
| GTATGAGA | -0.131 ± 0.012 |
| ATGAGGAA | -0.3 ± 0.077 |
| AAGCGCGG | 0.0485 ± 0.038 |
| CCAAGCGA | -0.166 ± 0.035 |
| CACTCTCC | 0.083 ± 0.04 |
| CCTTAATA | -0.1514 ± 0.00062 |
| GATGCATA | -0.0197 ± 0.1 |
| ACTGGTGA | -0.0696 ± 0.0019 |
| CCCCCCCA | -0.0836 ± 0.0076 |
| GGTACAGA | -0.041 ± 0.064 |
| CAAGATAG | -0.0633 ± 0.034 |
| CATCCTGC | -0.3604 ± 0.002 |
| GCGATTAC | -0.0283 ± 0.013 |
| GACCGCGA | 0.194 ± 0.0029 |
| CCACTCAC | 0.153 ± 0.06 |
| GCGTGAGA | 0.368 ± 0.021 |

| Sequence | PBM E-score of 8-mer |
| --- | --- |
| ATTTTTGC | 0.0605 ± 0.039 |
| AACCTTTC | -0.105 ± 0.047 |
| ATTGTCGG | 0.0329 ± 0.01 |
| CGGAAAAG | -0.0741 ± 0.0057 |
| AAGAGAGT | -0.115 ± 0.012 |
| AACCAGCA | -0.18 ± 0.047 |
| CTAGAGCC | -0.0119 ± 0.035 |
| CCACAACC | 0.0191 ± 0.096 |
| CTAGGGCC | -0.289 ± 0.0065 |
| CCGATCAC | 0.0996 ± 0.056 |
| TAAACCGA | -0.213 ± 0.046 |
| CGTGGGGA | 0.0599 ± 0.026 |
| AGGGCCAT | -0.257 ± 0.013 |
| GTTCGTCA | 0.0921 ± 0.043 |
| AGCCCTGC | -0.112 ± 0.0035 |
| AACGGCTT | -0.0435 ± 0.0081 |
| CTCATGTC | -0.105 ± 0.03 |
| GCAGGTGA | 0.4392 ± 0.002 |
| AGCCATGG | -0.198 ± 0.017 |
| ATCGGTTC | -0.017 ± 0.073 |
| AGCCTTCC | -0.196 ± 0.054 |
| TACGGCTA | -0.146 ± 0.013 |

| Sequence | PBM E-score of 8-mer |
| --- | --- |
| CAGATGAG | -0.15 ± 0.025 |
| GGGGCCAA | -0.131 ± 0.0054 |
| AGAGCTGG | -0.235 ± 0.02 |
| GGAGCCCA | -0.23 ± 0.14 |
| GACTGTAA | -0.0154 ± 0.025 |
| GCCTTTGA | -0.196 ± 0.038 |
| ACTTAGGA | -0.145 ± 0.067 |
| GTAGTTAA | -0.0551 ± 0.011 |
| AGCTCCGA | -0.00647 ± 0.052 |
| CGGGCCCG | 0.108 ± 0.013 |
| CCGCTAAG | 0.0974 ± 0.043 |
| AGTAGATG | -0.151 ± 0.026 |
| CAGGCCAC | -0.228 ± 0.0074 |
| CAGACGCG | 0.143 ± 0.04 |
| GGGAGTAA | -0.123 ± 0.013 |
| CTATTCAA | -0.116 ± 0.04 |
| AGGGGTAC | -0.373 ± 0.021 |
| GTGACACA | 0.416 ± 0.0096 |
| ACCGGGAA | -0.0696 ± 0.086 |
| AGCACGCG | 0.203 ± 0.0078 |
| AGCTTGGC | -0.216 ± 0.08 |
| ACTCATTG | -0.195 ± 0.062 |
